Source: the supplement of paper PMC4967469
IC50 is the fitted dose that halves viability relative to control wells, and lower means more sensitive; where the fit passes the top or lowest dose, that dose stands as a limit. AUC sums up the same curve from the lowest dose to the 256-fold higher top dose; it is 1 without any effect and falls as sensitivity rises. For some of these results: Any top dose called inferred was calculated from the reported fits. For some of these results: Where an entry number is given, a second screen of the drug exists; the two often differ.

Tests used:
Test in all cases: Viability of human cancer cell lines after 72 h of drug (GDSC screen)
SB 216763 = compound: Cn1cc(C2=C(c3ccc(Cl)cc3Cl)C(=O)NC2=O)c2ccccc21 [SB 216763]; conditions: top dose 10 µM; top dose inferred
Experimental: (§1)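 Human cancer cell lines in 384-well plates, medium with 10% serum, drug for 72 h over a 256-fold dose range (nine 2-fold or five 4-fold steps up to the top dose). Adherent lines were fixed and stained with the nucleic acid dye Syto60, suspension lines read with resazurin; signal relative to control wells, capped at 0 and 100%. One two-parameter sigmoid per drug and line, fitted in a mixed model over all curves with the slope shared within a line.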

CEP-701 = compound: C[C@]12O[C@H](C[C@]1(O)CO)n1c3ccccc3c3c4c(c5c6ccccc6n2c5c31)CNC4=O [CEP-701]; conditions: top dose 2 µM; top dose inferred
Experimental: as §1

GDC0941 = compound: CS(=O)(=O)N1CCN(Cc2cc3nc(-c4cccc5[nH]ncc45)nc(N4CCOCC4)c3s2)CC1 [GDC0941]; conditions: top dose 4 µM; screen: GDSC drug entry 1527; top dose inferred
Experimental: as §1

AR-42 = compound: CC(C)[C@H](C(=O)Nc1ccc(C(=O)NO)cc1)c1ccccc1 [AR-42]; conditions: top dose 5.12 µM; top dose inferred
Experimental: as §1

Pazopanib = compound: Cc1ccc(Nc2nccc(N(C)c3ccc4c(C)n(C)nc4c3)n2)cc1S(N)(=O)=O [Pazopanib]; conditions: top dose 8 µM
Experimental: as §1

Cell Line | AUC (SB 216763) | IC50 (SB 216763) [nM] | AUC (CEP-701) | IC50 (CEP-701) [nM] | AUC (GDC0941) | IC50 (GDC0941) [nM] | AUC (AR-42) | IC50 (AR-42) [nM] | AUC (Pazopanib) | IC50 (Pazopanib) [nM]
DAN-G (pancreas, adherent) | 0.991 | > 10000 | 0.947 | > 2000 | 0.675 | 715 | 0.608 | 608 | 0.967 | > 8000
DB (B-cell lymphoma, suspension) | 0.922 | > 10000 | 0.542 | 165 | 0.902 | > 4000 | 0.336 | 105 | 0.978 | > 8000
DBTRG-05MG (glioma, adherent) | 0.972 | > 10000 | 0.751 | 761 | 0.8 | 2330 | 0.721 | 1530 | 0.931 | > 8000
DK-MG (glioma, adherent) | 0.969 | > 10000 | 0.662 | 441 | 0.872 | > 4000 | 0.752 | 2500 | 0.774 | 4840
DMS-273 (small cell lung carcinoma, adherent) | 0.954 | > 10000 | 0.862 | 1870 | 0.849 | 3290 | 0.396 | 163 | 0.845 | 6310
Daoy (medulloblastoma, adherent) | 0.957 | > 10000 | 0.766 | 674 | 0.812 | 1900 | 0.285 | 84.3 | 0.84 | –
Detroit562 (head and neck, adherent) | 0.979 | > 10000 | 0.595 | 225 | 0.845 | 2740 | 0.823 | 2860 | 0.98 | > 8000
EBC-1 (lung squamous cell carcinoma, adherent) | 0.979 | > 10000 | 0.852 | 1870 | 0.675 | 822 | 0.711 | 1370 | 0.932 | > 8000
ECC10 (stomach, suspension) | 0.985 | > 10000 | 0.501 | 126 | 0.725 | 1130 | 0.721 | 1400 | 0.92 | > 8000
EFM-19 (breast, adherent) | 0.978 | > 10000 | 0.539 | 168 | 0.641 | 752 | 0.557 | 494 | 0.744 | 3690
EFM-192A (breast, adherent) | 0.98 | > 10000 | 0.924 | > 2000 | 0.696 | 953 | 0.652 | 889 | 0.667 | 1550
EFO-21 (ovary, adherent) | 0.98 | > 10000 | 0.864 | > 2000 | 0.779 | 2420 | 0.812 | 4380 | 0.897 | > 8000
EFO-27 (ovary, adherent) | 0.961 | > 10000 | 0.713 | 588 | 0.524 | 296 | 0.536 | 411 | 0.954 | > 8000
EGI-1 (biliary tract, adherent) | 0.905 | > 10000 | 0.692 | 514 | 0.813 | 3020 | 0.805 | 3550 | 0.97 | > 8000
EN (endometrium, adherent) | 0.984 | > 10000 | 0.831 | 1760 | 0.907 | > 4000 | 0.621 | 757 | 0.925 | > 8000
EPLC-272H (lung squamous cell carcinoma, adherent) | 0.981 | > 10000 | 0.532 | – | 0.643 | 658 | 0.456 | 238 | 0.906 | > 8000
ESS-1 (endometrium, adherent) | 0.99 | > 10000 | 0.791 | 800 | 0.809 | 1840 | 0.541 | 410 | 0.695 | 1650
EW-7 (Ewing sarcoma, semi-adherent) | 0.987 | > 10000 | 0.84 | 1140 | 0.599 | 450 | 0.436 | 219 | 0.987 | > 8000
FTC-133 (thyroid, adherent) | 0.976 | > 10000 | 0.546 | 169 | 0.917 | > 4000 | 0.805 | 2900 | 0.939 | > 8000
FU97 (stomach, adherent) | 0.951 | > 10000 | 0.464 | 99.7 | 0.674 | 779 | 0.745 | 1650 | 0.553 | 699
FU-OV-1 (ovary, adherent) | 0.951 | > 10000 | 0.948 | > 2000 | 0.818 | 3240 | 0.879 | > 5120 | 0.969 | > 8000
G-361 (melanoma, adherent) | 0.988 | > 10000 | 0.604 | 238 | 0.83 | 2360 | 0.432 | 210 | 0.764 | 2790
G-401 (kidney, adherent) | 0.979 | > 10000 | 0.672 | 397 | 0.643 | 648 | 0.558 | 468 | 0.623 | 1130
G-402 (soft tissue, adherent) | 0.83 | 9420 | 0.505 | 130 | 0.594 | 494 | 0.889 | > 5120 | 0.484 | 444
G-MEL (melanoma, adherent) | 0.971 | > 10000 | 0.402 | 67.5 | 0.93 | > 4000 | 0.57 | 496 | 0.791 | 3550
GI-ME-N (neuroblastoma, adherent) | 0.976 | > 10000 | 0.539 | 166 | 0.736 | 1530 | 0.434 | 198 | 0.812 | 6370

Cell Line | AUC (SB 216763) | IC50 (SB 216763) [nM] | AUC (CEP-701) | IC50 (CEP-701) [nM] | AUC (GDC0941) | IC50 (GDC0941) [nM] | AUC (AR-42) | IC50 (AR-42) [nM] | AUC (Pazopanib) | IC50 (Pazopanib) [nM]
GMS-10 (glioma, adherent) | 0.985 | > 10000 | 0.667 | 364 | 0.682 | 806 | 0.973 | > 5120 | 0.971 | > 8000
H4 (glioma, adherent) | 0.935 | > 10000 | 0.259 | 25.7 | 0.681 | 794 | 0.574 | 510 | 0.746 | –
H2373 (mesothelioma, adherent) | 0.983 | > 10000 | 0.506 | 131 | 0.728 | 1330 | 0.595 | 622 | 0.905 | > 8000
H2595 (mesothelioma, adherent) | 0.973 | > 10000 | 0.972 | > 2000 | 0.863 | > 4000 | 0.614 | 746 | 0.962 | > 8000
H2722 (mesothelioma, adherent) | 0.984 | > 10000 | 0.873 | > 2000 | 0.862 | > 4000 | 0.605 | 657 | 0.904 | > 8000
H2731 (mesothelioma, adherent) | 0.984 | > 10000 | 0.737 | 663 | 0.821 | 2770 | 0.173 | 27.3 | 0.758 | 3160
H2869 (mesothelioma, adherent) | 0.969 | > 10000 | 0.931 | > 2000 | 0.953 | > 4000 | 0.659 | 990 | 0.878 | > 8000
H3255 (lung adenocarcinoma, adherent) | 0.983 | > 10000 | 0.76 | 832 | 0.846 | 3810 | 0.804 | 3160 | 0.874 | > 8000
HCC38 (breast, adherent) | 0.986 | > 10000 | 0.869 | > 2000 | 0.928 | > 4000 | 0.607 | 644 | 0.976 | > 8000
HCC202 (breast, adherent) | 0.981 | > 10000 | 0.972 | > 2000 | 0.805 | 3070 | 0.454 | 229 | 0.818 | 7090
HCC1395 (breast, adherent) | 0.981 | > 10000 | 0.861 | > 2000 | 0.835 | 3420 | 0.911 | > 5120 | 0.719 | 2400
HCC1419 (breast, adherent) | 0.982 | > 10000 | 0.969 | > 2000 | 0.869 | > 4000 | 0.618 | 777 | 0.877 | > 8000
HCC1428 (breast, adherent) | 0.987 | > 10000 | 0.976 | > 2000 | 0.979 | > 4000 | 0.511 | 344 | 0.909 | > 8000
HCC1569 (breast, adherent) | 0.968 | > 10000 | 0.942 | > 2000 | 0.683 | 973 | 0.625 | 793 | 0.866 | > 8000
HCC1954 (breast, adherent) | 0.985 | > 10000 | 0.923 | > 2000 | 0.801 | 2340 | 0.699 | 1280 | 0.936 | > 8000
HCC-44 (lung adenocarcinoma, adherent) | 0.982 | > 10000 | 0.587 | 215 | 0.743 | 1220 | 0.434 | 212 | 0.935 | > 8000
HCC-56 (large intestine, adherent) | 0.964 | > 10000 | 0.891 | > 2000 | 0.892 | > 4000 | 0.509 | 339 | 0.987 | > 8000
HCC-78 (lung adenocarcinoma, adherent) | 0.96 | > 10000 | 0.702 | 515 | 0.689 | 935 | 0.529 | 389 | 0.953 | > 8000
HDQ-P1 (breast, adherent) | 0.985 | > 10000 | 0.763 | 856 | 0.825 | 3050 | 0.547 | 442 | 0.968 | > 8000
HEC-1 (endometrium, adherent) | 0.979 | > 10000 | 0.642 | 303 | 0.855 | 3010 | 0.642 | 779 | 0.961 | > 8000
HGC-27 (stomach, adherent) | 0.976 | > 10000 | 0.582 | 202 | 0.384 | 127 | 0.574 | 493 | 0.868 | 5510
HMV-II (melanoma, adherent) | 0.969 | > 10000 | 0.632 | 315 | 0.918 | > 4000 | 0.667 | 1040 | 0.65 | 1440
HN (head and neck, adherent) | 0.965 | > 10000 | 0.445 | 89.5 | 0.744 | 1190 | 0.883 | 4900 | 0.981 | > 8000
HO-1-u-1 (head and neck, adherent) | 0.938 | > 10000 | 0.617 | 258 | 0.879 | 3790 | 0.666 | 909 | 0.931 | > 8000
HOP-92 (large cell lung carcinoma, adherent) | 0.941 | > 10000 | 0.75 | 746 | 0.619 | 561 | 0.754 | 1970 | 0.884 | > 8000
HSC-2 (head and neck, adherent) | 0.989 | > 10000 | 0.863 | 1520 | 0.726 | 1030 | 0.803 | 2320 | 0.989 | > 8000
